Results published in PubChem BioAssay AID2546 (National Center for Advancing Translational Sciences (NCATS), 2010).
“And” between values parts separate entries of the source, which are not always exact repeats. Identical values can stand only once. The campaign covered roughly 310,000 compounds. About 11,000 (3.5%) were called active. Inconclusive results, whose numbers are uncertain, are shown with a selection of clear calls. The call rests on the fitted dose curve; in most records, active means well fitted inhibition curve with a large enough effect; inconclusive means small, poorly fitted or top-dose-only effect, or effect the other way; inactive means flat fitted curve, though single readings scatter. A potency beside an inconclusive call is a rough fit, not a confirmed value.

assay: VP16 counterscreen qHTS for inhibitors of ROR gamma transcriptional activity; details: Drosophila S2 Gal4-VP16 UAS-luciferase, luminescence, 20 h; activity, negative = inhibition: at 53.6 µM (top of the series);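 further: Gal4-VP16 expression switched on by copper sulfate through the metallothionein promoter; nearly all actives have a fitted effect of over 50% in size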
On the % scale 0 is the no-effect control and ±100 the full control effect; potency means the concentration at half of the fitted maximal effect; tags describe the fitted curve by direction and shape.

Structure (SMILES) | Potency | activity, negative = inhibition
CCNc1nc(NCC)nc(N(C)N)n1 | inconclusive: 35.5 µM [inhibitor, single point] | 
COc1ccc(N2CCN(CCNC(=O)Nc3cc(Cl)ccc3OC)CC2)cc1 |  | inactive: -9.16%
S=c1[nH]nc(CSCc2ccccc2Cl)n1C1CCCCC1 | inconclusive: 12.6 µM [inhibitor, partial curve] | 
COc1ccc(-n2c(=O)c(C)nc3cnc(Oc4cccc(Cl)c4)nc32)cc1 |  | inactive: -9.08%
COc1ccc(/C=C/c2nnc(NC(=O)COc3cccc(C)c3)s2)cc1 | inconclusive: 5.62 µM [activator, single point] | 
CCOC(=O)c1c(C)[nH]c(C(=O)N/N=C/c2cc([N+](=O)[O-])ccc2O)c1C | inconclusive: 0.631 µM [inhibitor, full curve] | 
O=C(O)c1ccc(N/N=C/c2cccc3cccnc23)cc1 | inconclusive: 2.51 µM [inhibitor, partial curve] | 
Cc1cccc2cncc(OCc3nnc(SC(F)F)n3C)c12 |  | inactive: 0.993%
O=C(OCCN1CCN(C2=NS(=O)(=O)c3ccccc32)CC1)c1cccc(Br)c1 |  | inactive: -4.21%
CC(=O)Nc1ccc(/C=N/Nc2nc3ccccc3[nH]2)cc1 |  | inactive: -5.1%
Cc1n[nH]c(=S)n1-c1cccc(Cl)c1 | inconclusive: 11.2 µM [inhibitor, partial curve] | 
COc1ccc(S(=O)(=O)N(C)c2ccc(C(=O)NCc3ccccn3)cc2)cc1OC |  | inactive: 5.17%
O=C(Nc1ccc(N2CCOCC2)cc1)c1cccc(S(=O)(=O)N2CCCCC2)c1 | inconclusive: 35.5 µM [inhibitor, single point] | 
C/C(=N\NC1=NCCN1)c1ccc(N)c([N+](=O)[O-])c1 | inconclusive: 35.5 µM [inhibitor, single point] | 
C/C(=N\Nc1ccccn1)c1ccc2c(c1)OCO2 | inconclusive: 28.2 µM [inhibitor, single point] | 
CCCC[C@]12Cc3ccccc3C(O1)c1c(cc(-c3ccccc3)oc1=O)O2 | inconclusive: 6.31 µM [inhibitor, single point] | 
CCOc1ccc(C2NC(=O)C(C#N)=C(S)N2c2ccc(C)cc2)cc1OC (stereo unspecified) | inconclusive: 35.5 µM [inhibitor, partial curve, poor fit] | 
CN(C)S(=O)(=O)c1cccc(COC(=O)Cc2c(F)cccc2Cl)c1 | inconclusive: 14.1 µM [inhibitor, partial curve] | 
COc1cccc(-c2cc(C(=O)NCC3CCCO3)c3cc(Br)cc(C)c3n2)c1 (stereo unspecified) |  | inactive: -28.8%
COc1cc(-c2nc3c4ccccc4nc(=S)n3[nH]2)cc(OC)c1OC | active: 1.41 µM | 
CCN(CC)CCOC(=O)c1ccc(NC(=O)c2cn(-c3ccccc3)nc2-c2cccs2)cc1 | inconclusive: 20 µM [inhibitor, single point] | 
CNc1nc(SCC(=O)Nc2ccccc2)nc(N2CCOCC2)n1 |  | inactive: 0.315%
NS(=O)(=O)c1ccc(N/C=C\C(=O)c2ccc(F)cc2)cc1 | inconclusive: 5.62 µM [activator, single point] | 
COc1ccc(/C=N/NC(=O)c2ccc(COc3ccccc3Cl)o2)c(OC)c1C | inconclusive: 17.8 µM [inhibitor, single point] | 

Structure (SMILES) | Potency | activity, negative = inhibition
CCOC(=O)c1ccc(NC(=S)NC(=O)c2cncc(Br)c2)cc1 | inconclusive: 5.62 µM [inhibitor, single point] | 
CC(=O)N1CCSc2ccc(S(=O)(=O)N3CCC(C)CC3)cc21 | inconclusive: 31.6 µM [inhibitor, partial curve, poor fit] | 
O=C(CNC(=O)c1ccccc1)N/N=C/c1ccc([N+](=O)[O-])o1 | active: 17.8 µM | 
COc1ccc2c(c1OC)C(=O)N(c1cccc(/C=C/C(=O)O)c1)C2 | inconclusive: 28.2 µM [inhibitor, single point] | 
Cc1cccc(-n2c(O)c(/C=N/NC(=O)c3ccccc3Cl)c3ccccc3c2=O)n1 | active: 4.47 µM | 
CCOc1cc(CNCC(C)C)c(Cl)cc1OCC(=O)Nc1ccccc1 |  | inactive: 6.03%
CC1(C)CN(C(Cc2ccccc2)C(N)=O)C1=O (stereo unspecified) |  | inactive: -10.4%
COc1ccc(/C=C/C(=O)NC(=S)N2CCOCC2)cc1 | inconclusive: 35.5 µM [inhibitor, single point] | 
O=C(NN=C1CCCC1)c1[nH]c2ccc(Cl)cc2c1-c1ccccc1 | inconclusive: 22.4 µM [inhibitor, single point] | 
Clc1ccc(-c2nnc(NC3=NCCCCC3)o2)cc1 | active: 8.91 µM | 
Cc1ccc(NCc2nc3ccccc3n2CCOc2ccccc2)cc1 | inconclusive: 35.5 µM [inhibitor, single point] | 
COc1ccccc1-c1ccc(/C=C2\C=CC(=O)O2)o1 | inconclusive: 6.31 µM [activator, full curve, poor fit] | 
Cc1noc(C)c1S(=O)(=O)N1CCC(C(=O)Nc2ccc(OC(F)(F)F)cc2)CC1 | inconclusive: 35.5 µM [inhibitor, single point] | 
COc1ccc(NCC(=O)N/N=C/c2ccc3c(c2)OCCO3)cc1 |  | inactive: -6.39%
CCOC(=O)c1sc2nc(-c3ccco3)c3c(c2c1N)CC(C)(C)OC3 | inconclusive: 35.5 µM [inhibitor, single point] | 
NC(=S)N=Nc1c(O)[nH]c2cc(F)c(F)cc12 | active: 5.01 µM | 
CCOC(=O)c1ccc(NC(=O)c2nc[nH]c2C(=O)N2CCC(C)CC2)cc1 | inconclusive: 35.5 µM [inhibitor, single point] | 
CC(=O)NNC(=O)c1cc2sccc2s1 |  | inactive: -10.3%
CCCCNC(=S)Nc1ccc(-c2nc3ccc(C)cc3s2)cc1 | inconclusive: 35.5 µM [inhibitor, single point] | 
CC1=Nc2ccccc2N=C(NC(=O)CSC(=S)N2CCN(C)CC2)C1c1ccccc1 (stereo unspecified) |  | inactive: 16%
CCN(CC)c1ccc(/C=N/NC(=O)c2cccc(S(=O)(=O)Nc3ccccc3OC)c2)cc1 | active: 8.91 µM | 
CN(N)c1nc(-c2ccccc2)cc(-c2ccccc2)n1 | inconclusive: 35.5 µM [inhibitor, single point] | 
O=C(c1ccc(OCCN2CCCCC2)cc1)c1c(-c2ccc(O)cc2)sc2cc(O)ccc12 | inconclusive: 35.5 µM [inhibitor, single point] and inconclusive: 22.4 µM [inhibitor, single point] | 
CC(=O)Nc1ccc(SCCCC(=O)c2ccccc2)cc1 | inconclusive: 6.31 µM [inhibitor, single point] | 

Structure (SMILES) | Potency | activity, negative = inhibition
O=C(CSc1nnc(-c2ccc3c(c2)OCO3)o1)Nc1ncc(C(F)(F)F)cc1Cl | inconclusive: 35.5 µM [inhibitor, single point] | 
Cc1cc(C(=O)OCC(=O)NCc2ccc3c(c2)OCO3)c2ccccc2n1 |  | inactive: -2.28%
Cc1ccc(N=C2NC(=O)/C(=C/C=C/c3ccco3)S2)cc1C | inconclusive: 35.5 µM [inhibitor, single point] | 
OC(c1ccc(Cl)cc1)c1nccc2ccccc12 (stereo unspecified) | inconclusive: 12.6 µM [inhibitor, single point] | 
Clc1ccc(-c2cnc(Oc3ccccc3)nc2)cc1 | inconclusive: 0.794 µM [inhibitor, full curve] | 
Cc1sc(=NC(=O)c2ccco2)n(C)c1-c1ccc(Cl)cc1 |  | inactive: -0.873%
COc1ccc(/C=N/Nc2ccc([N+](=O)[O-])cc2)cc1O |  | inactive: 6.75%
O=C(Nc1ccccc1)NC1CCCCC1 |  | inactive: 17.1%
CC(C)c1ccc2oc(-c3ccc(N)cc3)nc2c1 | inconclusive: 7.94 µM [inhibitor, partial curve] | 
Nc1nn(S(=O)(=O)c2ccccc2)cc1-c1ccc([N+](=O)[O-])cc1 | active: 35.5 µM | 
CCN1C(=O)C2(C(C#N)=C(N)Oc3c2c(C)nn3-c2ccccc2)c2ccccc21 (stereo unspecified) | inconclusive: 17.8 µM [inhibitor, single point] | 
COc1cccc(C(=O)/C=C/Nc2ccc(S(=O)(=O)Nc3cnc4ccccc4n3)cc2)c1 | inconclusive: 35.5 µM [inhibitor, single point] | 
CC(/C=C/c1ccccc1)=N\NC(=O)c1ccc2c(c1)OCCO2 | inconclusive: 22.4 µM [inhibitor, single point] | 
CC(=O)Nc1cccc(/C(C)=N/NC(=O)c2ccc(O)cc2)c1 | inconclusive: 22.4 µM [inhibitor, single point] | 
S=c1nc(C2CCCCC2)[nH]c2ccccc12 | active: 8.91 µM | 
Cc1ccccc1Nc1c([N+](=O)[O-])cncc1[N+](=O)[O-] | inconclusive: 22.4 µM [inhibitor, single point] | 
O=C(CCn1c2c(c3ccccc31)CCCC2)NNC(=O)c1ccc(Cl)c([N+](=O)[O-])c1 | inconclusive: 35.5 µM [inhibitor, single point] | 
O=C(NC1=NCCS1)c1cc(-c2cccs2)nc2ccccc12 | inconclusive: 35.5 µM [inhibitor, single point] | 
CCN(Cc1ccccc1)C(=O)CCc1nnc(CCCc2ccccc2)o1 | inconclusive: 3.98 µM [activator, full curve] | 
N/C(Cc1ccc([N+](=O)[O-])cc1)=N\OC(=O)c1ccc(Br)cc1 | inconclusive: 22.4 µM [inhibitor, single point] | 
NNc1ncnc2c1cnn2-c1ccccc1 | inconclusive: 35.5 µM [inhibitor, single point] | 
O=C(Cc1nc2ccccc2[nH]c1=O)c1ccccc1 | inconclusive: 5.01 µM [activator, partial curve, poor fit] | 
Cn1c(=O)n(CCCO)c(=O)c2c1nc1n2CCCN1Cc1ccccc1 | inconclusive: 39.8 µM [inhibitor, partial curve, poor fit] | 
